The shares of active, inactive and inconclusive entries below differ from those in the screen. Potencies of inconclusive entries are left out as doubtful fits. Active and inactive are the calls of the source. Calls follow the shape of the dose curve; as a rule, active = well fitted curve in the direction sought with a large enough effect; inconclusive = small, poorly fitted or top-dose-only effect, or another doubt; inactive = no such curve, though single readings can be large; an effect the other way counts as inactive or inconclusive.
Target: Ubiquitin carboxyl-terminal hydrolase 1 (Homo sapiens) (UniProt O94782)
Sequence of UniProt O94782 (O94782 whole entry, looked up): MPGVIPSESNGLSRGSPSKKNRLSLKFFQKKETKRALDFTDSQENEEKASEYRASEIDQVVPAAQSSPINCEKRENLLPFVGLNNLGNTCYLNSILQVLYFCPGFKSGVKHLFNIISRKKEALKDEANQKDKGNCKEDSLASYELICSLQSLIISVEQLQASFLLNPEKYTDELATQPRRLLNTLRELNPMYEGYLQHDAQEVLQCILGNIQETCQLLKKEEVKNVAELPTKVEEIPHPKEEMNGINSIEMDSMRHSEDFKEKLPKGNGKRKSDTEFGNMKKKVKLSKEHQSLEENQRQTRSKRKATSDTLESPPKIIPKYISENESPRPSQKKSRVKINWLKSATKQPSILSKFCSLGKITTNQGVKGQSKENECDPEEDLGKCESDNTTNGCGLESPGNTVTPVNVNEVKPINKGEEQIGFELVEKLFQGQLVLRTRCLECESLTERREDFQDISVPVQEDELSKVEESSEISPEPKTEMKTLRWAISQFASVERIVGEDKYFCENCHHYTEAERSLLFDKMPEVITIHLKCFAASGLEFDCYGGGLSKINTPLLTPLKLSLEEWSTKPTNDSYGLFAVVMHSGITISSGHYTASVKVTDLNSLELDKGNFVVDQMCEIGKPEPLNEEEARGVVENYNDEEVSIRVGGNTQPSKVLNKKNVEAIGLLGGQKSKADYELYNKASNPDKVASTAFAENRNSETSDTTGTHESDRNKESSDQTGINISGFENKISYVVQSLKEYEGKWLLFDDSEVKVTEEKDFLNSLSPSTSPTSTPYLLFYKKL
Experiment: Inhibitors of USP1/UAF1: Pilot qHTS (AID 504865);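 also: rhodamine fluorescence freed from ubiquitin-rhodamine substrate followed over time; nearly all actives have a fitted effect of over 35% in size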
Details: purified USP1/UAF1, Ub-rhodamine cleavage fluorescence; series mostly up to 114 µM
Outline: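 Kinetic fluorescence assay: 1nM USP1/UAF1, 15 min compound preincubation, then 150nM Ub-Rho; 480/540 nm.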
Potency is read from the fitted curve at half-maximal effect; tags tell the direction and shape of the fitted curve.

Structure (SMILES)	Potency
CCCCCCCCCCCC(=O)OCC(O)CO (centres undefined)	inconclusive [inhibitor, partial curve]
NC(=S)N=Nc1ccc(NN=C(N)N)cc1	active: 44.7 µM
C=CC[C@@H]1/C=C(\C)C[C@H](C)C[C@H](OC)[C@H]2O[C@@](O)(C(=O)C(=O)N3CCCC[C@H]3C(=O)O[C@H](/C(C)=C/[C@@H]3CC[C@@H](O)[C@H](OC)C3)[C@H](C)[C@@H](O)CC1=O)[C@H](C)C[C@@H]2OC	inconclusive [inhibitor, partial curve, poor fit]

Tested on: not listed separately
Experiment: S16 Schwann cell viability assay (CellTiter-Glo assay) (AID 624031);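 also: cellular ATP luminescence as a viability measure; nearly all actives have a fitted effect of over 70% in size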;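 as to activity change, negative = cytotoxicity: plate controls were DMSO-treated cells for no effect and cell-free wells for full effect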
Details: S16 rat Schwann cells viability, 24 h; series mostly up to 57.5 µM
Outline: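 Luminescent ATP read-out (CellTiter-Glo) after 24 h compound exposure of native S16 rat Schwann cells at 37 °C. Signals were normalized between cell-free wells and DMSO-treated cells, set as 0% activity.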

Structure (SMILES)	Potency
NC(=S)N=Nc1ccc(NN=C(N)N)cc1	active: 10.2 µM
N#Cc1ccc2c(c1)N(CCCN1CCC(O)CC1)c1ccccc1S2	inactive
C=CC[C@@H]1/C=C(\C)C[C@H](C)C[C@H](OC)[C@H]2O[C@@](O)(C(=O)C(=O)N3CCCC[C@H]3C(=O)O[C@H](/C(C)=C/[C@@H]3CC[C@@H](O)[C@H](OC)C3)[C@H](C)[C@@H](O)CC1=O)[C@H](C)C[C@@H]2OC	inconclusive [cytotoxic, partial curve]

Tested on: not listed separately
Experiment: S16 Schwann cell PMP22 intronic element firefly luciferase assay (AID 624032); also: nearly all actives have a fitted effect of over 30% in size
Details: S16 rat Schwann cells, PMP22 element FLuc, 24 h; series mostly up to 57.5 µM
Outline: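 Rat S16 Schwann cells stably carrying firefly luciferase driven by a PMP22 intronic element, in 10% FBS, treated 24 h at 37 C. ONE-Glo luminescence normalized to PTC124 control and DMSO (0%); curves classed by r2, magnitude and activity.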

Structure (SMILES)	Potency
CCCCCCCCCCCC(=O)OCC(O)CO (centres undefined)	inactive
NC(=S)N=Nc1ccc(NN=C(N)N)cc1	inactive
N#Cc1ccc2c(c1)N(CCCN1CCC(O)CC1)c1ccccc1S2	inconclusive [inhibitor, single point]
C=CC[C@@H]1/C=C(\C)C[C@H](C)C[C@H](OC)[C@H]2O[C@@](O)(C(=O)C(=O)N3CCCC[C@H]3C(=O)O[C@H](/C(C)=C/[C@@H]3CC[C@@H](O)[C@H](OC)C3)[C@H](C)[C@@H](O)CC1=O)[C@H](C)C[C@@H]2OC	inconclusive [inhibitor, partial curve]

Tested on: not listed separately
Experiment: qHTS Assay for Identifying Gametocytocidal Compounds (AID 743244);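 as to max response: % is scaled to controls: 0 for no effect and ±100 for the full control effect; actives lower the fluorescent signal which means gametocytes are killed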
Details: P. falciparum 3D7 stage III-V gametocytes, alamarBlue, 72 h; max response: hits give low values
Outline: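 Stage III-V P. falciparum 3D7 gametocytes, 20,000 per well, were exposed to compounds for 72 h at 37C, 5% CO2. AlamarBlue was then added for 24 h and viability was read as fluorescence at Ex 525/Em 598 nm.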

Structure (SMILES)	Potency	max response
NC(=S)N=Nc1ccc(NN=C(N)N)cc1	inconclusive [inhibitor, single point]	–
N#Cc1ccc2c(c1)N(CCCN1CCC(O)CC1)c1ccccc1S2	inconclusive [inhibitor, single point]	–
S=C=Nc1ccc(N=C=S)cc1	–	inactive: -17.1%
C=CC[C@@H]1/C=C(\C)C[C@H](C)C[C@H](OC)[C@H]2O[C@@](O)(C(=O)C(=O)N3CCCC[C@H]3C(=O)O[C@H](/C(C)=C/[C@@H]3CC[C@@H](O)[C@H](OC)C3)[C@H](C)[C@@H](O)CC1=O)[C@H](C)C[C@@H]2OC	inconclusive [inhibitor, single point]	–

Tested on: not listed separately
Experiment: P-glycoprotein substrates identified in KB-8-5-11 adenocarcinoma cell line, qHTS therapeutic library screen (AID 1346987); also: nearly all actives have a fitted effect of over 65% in size; as to activity change, negative = cytotoxicity: % is scaled to controls: 0 for no effect and ±100 for the full control effect
Details: KB-8-5-11 (P-gp overexpressing) viability, CellTiter-Glo, 72 h; activity change, negative = cytotoxicity: at 44.5 µM (top of the series); series mostly up to 44.5 µM
Outline: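 Compounds are pinned in dose-response onto KB-8-5-11 cells (500 cells/well, colchicine-free medium) and left 72 h at 37 degree C. CellTiter-Glo luminescence then yields AC50 values.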

Structure (SMILES)	Potency	outcome
C=CC(=O)Nc1cccc(C)c1Nc1ncc2cc(-c3c(Cl)c(OC)cc(OC)c3Cl)ccc2n1	active: 9.2 µM	–
CC1Oc2cc(cnc2N)-c2c(nn(C)c2C#N)CN(C)C(=O)c2ccc(F)cc21 (centres undefined)	inconclusive [inhibitor, single point]	–
Cc1cc(F)c(Nc2ncnc3cc(OCc4ccccc4)ccc23)cc1O	inconclusive [inhibitor, single point]	–
Cc1ccc(NS(=O)(=O)c2cc3c(cc2F)NC(=O)CC3)cc1Cl	inconclusive [inhibitor, single point]	–
COc1cc(C(O)C2COC(c3ccc(OC4OC(CO)C(O)C(O)C4O)c(OC)c3)C2CO)ccc1O (centres undefined)	inactive	–
CN1CCN(c2nc(C3=C(c4c[nH]c5ccccc45)C(=O)NC3=O)c3ccccc3n2)CC1	inactive	–
CCCCCCCCCCCCCCCCOCCCOP(=O)(O)COC(CO)Cn1ccc(N)nc1=O (centres undefined)	inconclusive [inhibitor, single point]	–
CC[C@H](C)C(=O)O[C@H]1CCC=C2C=C[C@H](C)[C@H](CC[C@@H]3C[C@@H](O)CC(=O)O3)[C@H]21	inconclusive [inhibitor, single point]	–
COc1ccc(-c2oc3ncnc(N)c3c2-c2ccc(NC(=O)Nc3cc(C(F)(F)F)ccc3F)cc2)cc1	active: 5.8 µM	–
O=C(O)c1n[nH]c2c1C[C@H]1C[C@@H]21	inactive	–
N#Cc1ccc(-c2c(-c3ncn[nH]3)sc(N3CCOCC3)c2C#N)c(F)c1	active: 5.8 µM	–
Cc1[nH]c(/C=C2\C(=O)Nc3ccccc32)c(C)c1CCC(=O)O	inactive	–
Nc1ncnc2c1c(I)cn2[C@@H]1C[C@H](N)[C@@H](O)[C@H]1O	inconclusive [inhibitor, single point]	–
Cc1nc(CN(C)c2ncnc3ccc(-c4ccc5c(c4)OCO5)cc23)cs1	active: 20.6 µM	–
CCCCCCCCCCCC(=O)OCC(O)CO (centres undefined)	inactive	–
NC(=S)N=Nc1ccc(NN=C(N)N)cc1	inconclusive [inhibitor, full curve]	–
O=C(O)[C@@H]1C[C@H](CP(=O)(O)O)CCN1	inactive	–
N#Cc1ccc2c(c1)N(CCCN1CCC(O)CC1)c1ccccc1S2	inconclusive [inhibitor, partial curve, poor fit]	–
C#Cc1cccc(Nc2ncnc3cc4c(cc23)OCCOCCOCCO4)c1	inactive	–
CNc1cc2c(Nc3cccc(Br)c3)ncnc2cn1	inconclusive [inhibitor, partial curve]	–

Structure (SMILES)	Potency	outcome
CN(Cc1nccs1)c1ncnc2ccc(-c3ccc4c(c3)OCO4)cc12	inconclusive [inhibitor, partial curve, poor fit]	–
Cc1ncc([N+](=O)[O-])n1CC(O)CCl (centres undefined)	inactive	–
CN1C(=O)N(c2cc(Cl)cc(Cl)c2)C(=O)[C@@]1(C)Cc1ccc(Br)cc1	inconclusive [inhibitor, single point]	–
O=S(=O)(NCCNC/C=C/c1ccc(Br)cc1)c1cccc2cnccc12	inconclusive [inhibitor, single point]	–
S=C=Nc1ccc(N=C=S)cc1	inactive	–
CC(C)=CC/C=C(\C)[C@H]1CC[C@]2(C)[C@@H]1[C@H](O)C[C@@H]1[C@@]3(C)CC[C@H](O)C(C)(C)[C@@H]3[C@@H](O[C@@H]3O[C@H](CO)[C@@H](O)[C@H](O)[C@H]3O)C[C@]12C	inactive	–
Cc1cc(Nc2ncnc3ccc(NC4=NC(C)(C)CO4)cc23)ccc1Oc1ccn2ncnc2c1	inconclusive [inhibitor, single point]	–
Cc1ccc(Nc2ncc3c(n2)N(C)C(=O)N(c2cc(NC(=O)c4cccc(C(F)(F)F)c4)ccc2C)C3)cn1	inconclusive [inhibitor, partial curve, poor fit]	–
CNc1nc(Nc2cn(C(C)(C)C#N)nc2C)ncc1C(F)(F)F	inactive	–
CCCC(NC(=O)/C(C#N)=C/c1cccc(Br)n1)c1ccccc1 (centres undefined)	inconclusive [inhibitor, single point]	–
CCC(C)(O)C(O)C(=O)OCc1ccc(O[C@@H]2O[C@H](CO)[C@@H](O)[C@H](O)[C@H]2O)cc1 (some centres undefined)	inactive	–
COc1cc(OC)c(C(=O)/C=C/c2ccccc2)c2c1C=CC(C)(C)O2	inconclusive [inhibitor, single point]	–
COc1cccc(C)c1C(=O)O[C@@H]1C[C@H](O[C@H]2[C@H](O)C[C@H](O[C@@H]3CCC[C@H]4[C@H]3C=C[C@@H]3CCCC/C=C/[C@H]5C=C(C(=O)O)[C@@H](C)C[C@@]56OC(=O)C(=C6O)OC(=O)[C@@]34C)O[C@@H]2C)O[C@H](C)[C@H]1O	–	inactive [at 9.29 µM]
C=CC[C@@H]1/C=C(\C)C[C@H](C)C[C@H](OC)[C@H]2O[C@@](O)(C(=O)C(=O)N3CCCC[C@H]3C(=O)O[C@H](/C(C)=C/[C@@H]3CC[C@@H](O)[C@H](OC)C3)[C@H](C)[C@@H](O)CC1=O)[C@H](C)C[C@@H]2OC	inconclusive [inhibitor, partial curve]	–
O=c1sn(-c2cccc3ccccc23)c(=O)n1Cc1ccccc1	inconclusive [inhibitor, single point]	–
Nc1ncnc2c1ncn2[C@H]1O[C@H](CO)[C@@H](O)[C@@H]1O	inconclusive [inhibitor, partial curve, poor fit]	–
CN(C)CC(=O)N1CCC[C@@H](n2nc(-c3ccc(Oc4ccccc4)cc3)c3c(N)ncnc32)C1	active: 20.6 µM	–
C[C@H]1COCCN1c1cc(C2(S(=O)(=O)C3CC3)CC2)nc(-c2ccc(NC(=S)NCCO)cc2)n1	active: 0.731 µM	–
Clc1ccc2ncc(-c3cccc(NC4CCNC4)n3)n2c1 (centres undefined)	active: 10.3 µM	–
O=C(CCCCN1CCOCC1)Nc1ccc(-c2cccnc2)cc1	inactive	–

— PubChem BioAssay (NCATS)
